{"source": "the supplement of paper PMC4166925", "note": "± gives the standard deviation of the averaged measurements. The full ranking holds about 33,000 sequences; the median of “E-score (dimensionless, -0.5 to 0.5)” is about -0.049, and the highest 2% start at about 0.37. This is one part of the list."}
{"system": "T1, PmTbr T-box DNA-binding domain (GST fusion)", "T1 sequence": "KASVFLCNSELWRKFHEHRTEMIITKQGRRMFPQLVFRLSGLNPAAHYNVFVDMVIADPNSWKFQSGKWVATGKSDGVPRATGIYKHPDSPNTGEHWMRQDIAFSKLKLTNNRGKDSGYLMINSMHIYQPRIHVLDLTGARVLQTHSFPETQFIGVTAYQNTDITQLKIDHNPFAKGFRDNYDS", "assay": "PBM E-score of 8-mer (E-score (dimensionless, -0.5 to 0.5)); Tbr is Tbrain of the sea star Patiria miniata (Pm) or the sea urchin Strongylocentrotus purpuratus (Sp); higher = stronger binding preference; most listed sequences are background and not binding sites", "conditions": "the construct has about 5 more residues each side", "in_short": "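GST-fused Tbr T-box DNA-binding domains (the whole T-box plus about five flanking residues) were expressed in BL21 E. coli at 20 °C and purified by glutathione affinity chromatography. Universal Agilent oligonucleotide arrays were made double-stranded by primer extension, incubated with 200 nM protein in PBS (pH 7.5), then scanned and quantified. Every ungapped 8-mer was scored from probe intensities. The Universal PBM Analysis Suite gave each word an enrichment E-score, averaged over duplicate arrays.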"}
{"sequence": "ATCTTCCA", "PBM E-score of 8-mer": "-0.0837 ± 0.0074"}
{"sequence": "AGTTATAG", "PBM E-score of 8-mer": "-0.158 ± 0.037"}
{"sequence": "AGCTCGAC", "PBM E-score of 8-mer": "0.242 ± 0.044"}
{"sequence": "CCCAGGCC", "PBM E-score of 8-mer": "-0.191 ± 0.015"}
{"sequence": "ATTACCTA", "PBM E-score of 8-mer": "-0.0469 ± 0.0045"}
{"sequence": "CGGGTAGC", "PBM E-score of 8-mer": "0.0542 ± 0.073"}
{"sequence": "ATATAGCC", "PBM E-score of 8-mer": "-0.2087 ± 0.00052"}
{"sequence": "ACGTTTGA", "PBM E-score of 8-mer": "0.0627 ± 0.073"}
{"sequence": "GCCAGAAC", "PBM E-score of 8-mer": "-0.105 ± 0.041"}
{"sequence": "CTTGGCAC", "PBM E-score of 8-mer": "0.352 ± 0.016"}
{"sequence": "CTTGGCCA", "PBM E-score of 8-mer": "-0.204 ± 0.012"}
{"sequence": "AGCTTTAC", "PBM E-score of 8-mer": "-0.00584 ± 0.064"}
{"sequence": "AGGAAGAA", "PBM E-score of 8-mer": "-0.163 ± 0.04"}
{"sequence": "CGTTGACA", "PBM E-score of 8-mer": "0.405 ± 0.0049"}
{"sequence": "GAAAGAAC", "PBM E-score of 8-mer": "-0.137 ± 0.076"}
{"sequence": "ACGGGGAC", "PBM E-score of 8-mer": "-0.0537 ± 0.069"}
{"sequence": "AGTGAGAG", "PBM E-score of 8-mer": "0.312 ± 0.022"}
{"sequence": "CAGAGACG", "PBM E-score of 8-mer": "-0.147 ± 0.1"}
{"sequence": "GCCCAGCA", "PBM E-score of 8-mer": "-0.0465 ± 0.11"}
{"sequence": "ACCGCGGA", "PBM E-score of 8-mer": "-0.0338 ± 0.052"}
{"sequence": "AGATAACC", "PBM E-score of 8-mer": "-0.193 ± 0.019"}
{"sequence": "ACTACCAA", "PBM E-score of 8-mer": "-0.123 ± 0.016"}
{"sequence": "ATGGCCGG", "PBM E-score of 8-mer": "-0.237 ± 0.0035"}
{"sequence": "CCCGCTCA", "PBM E-score of 8-mer": "-0.052 ± 0.03"}
{"sequence": "AGAAGGAG", "PBM E-score of 8-mer": "-0.158 ± 0.038"}
{"sequence": "AACGCCAA", "PBM E-score of 8-mer": "0.0837 ± 0.065"}
{"sequence": "GAGTGATA", "PBM E-score of 8-mer": "0.246 ± 0.023"}
{"sequence": "GACTGGCA", "PBM E-score of 8-mer": "-0.0195 ± 0.022"}
{"sequence": "CAATTGGG", "PBM E-score of 8-mer": "-0.063 ± 0.063"}
{"sequence": "AGCAATCG", "PBM E-score of 8-mer": "0.0214 ± 0.037"}
{"sequence": "CTGGGCGC", "PBM E-score of 8-mer": "0.15669 ± 9.9e-05"}
{"sequence": "AGGATTGA", "PBM E-score of 8-mer": "-0.0332 ± 0.047"}
{"sequence": "AGAACCAA", "PBM E-score of 8-mer": "-0.0884 ± 0.013"}
{"sequence": "ACCCAATC", "PBM E-score of 8-mer": "-0.0936 ± 0.012"}
{"sequence": "CTCTCTGA", "PBM E-score of 8-mer": "-0.253 ± 0.021"}
{"sequence": "CTAACCGA", "PBM E-score of 8-mer": "-0.0216 ± 0.052"}
{"sequence": "CATTGTTA", "PBM E-score of 8-mer": "0.123 ± 0.07"}
{"sequence": "CGCATGGA", "PBM E-score of 8-mer": "-0.0807 ± 0.0088"}
{"sequence": "CATTATGG", "PBM E-score of 8-mer": "0.0845 ± 0.0034"}
{"sequence": "CCTTCGCG", "PBM E-score of 8-mer": "0.2566 ± 0.0012"}
{"sequence": "ATCTTGTC", "PBM E-score of 8-mer": "0.0542 ± 0.013"}
{"sequence": "CATTCCAG", "PBM E-score of 8-mer": "-0.219 ± 0.015"}
{"sequence": "GGAACCCA", "PBM E-score of 8-mer": "-0.1998 ± 0.0014"}
{"sequence": "AGTGTGGC", "PBM E-score of 8-mer": "0.298 ± 0.012"}
{"sequence": "ATGTGGCC", "PBM E-score of 8-mer": "-0.241 ± 0.024"}
{"sequence": "CAAAACCG", "PBM E-score of 8-mer": "-0.0313 ± 0.0028"}
{"sequence": "GATCGAGA", "PBM E-score of 8-mer": "-0.0348 ± 0.057"}
{"sequence": "AAGCGAGG", "PBM E-score of 8-mer": "0.0944 ± 0.026"}
{"sequence": "AGACAGAG", "PBM E-score of 8-mer": "-0.139 ± 0.052"}
{"sequence": "ATGCAGCC", "PBM E-score of 8-mer": "-0.192 ± 0.0069"}
{"sequence": "CGGAATGA", "PBM E-score of 8-mer": "-0.0838 ± 0.033"}
{"sequence": "CGACACAC", "PBM E-score of 8-mer": "0.237 ± 0.0089"}
{"sequence": "ATTGCGCA", "PBM E-score of 8-mer": "-0.0786 ± 0.035"}
{"sequence": "ATTGGTTC", "PBM E-score of 8-mer": "-0.0984 ± 0.05"}
{"sequence": "ATACGGTC", "PBM E-score of 8-mer": "-0.12 ± 0.012"}
{"sequence": "GGACTCGA", "PBM E-score of 8-mer": "-0.169 ± 0.076"}
{"sequence": "TACCACGA", "PBM E-score of 8-mer": "0.0444 ± 0.043"}
{"sequence": "CGAAGCTC", "PBM E-score of 8-mer": "-0.11 ± 0.043"}
{"sequence": "ACACCACC", "PBM E-score of 8-mer": "0.405 ± 0.0043"}
{"sequence": "GGCTTCTA", "PBM E-score of 8-mer": "-0.336 ± 0.046"}
{"sequence": "ATTCTGTG", "PBM E-score of 8-mer": "-0.123 ± 0.067"}
{"sequence": "GCCATTCC", "PBM E-score of 8-mer": "0.0412 ± 0.042"}
{"sequence": "TAACATAA", "PBM E-score of 8-mer": "-0.0455 ± 0.016"}
{"sequence": "GACCGCTA", "PBM E-score of 8-mer": "-0.127 ± 0.037"}
{"sequence": "GAATGCTA", "PBM E-score of 8-mer": "0.0675 ± 0.021"}
{"sequence": "CCTTCATC", "PBM E-score of 8-mer": "-0.131 ± 0.052"}
{"sequence": "GGTATAAA", "PBM E-score of 8-mer": "-0.255 ± 0.078"}
{"sequence": "CGGCAACC", "PBM E-score of 8-mer": "-0.0228 ± 0.011"}
{"sequence": "AGGGAAAT", "PBM E-score of 8-mer": "-0.153 ± 0.043"}
{"sequence": "CAGTCTAC", "PBM E-score of 8-mer": "-0.169 ± 0.023"}
{"sequence": "ACTACTTC", "PBM E-score of 8-mer": "-0.0149 ± 0.046"}
{"sequence": "TGCTCTAA", "PBM E-score of 8-mer": "-0.317 ± 0.046"}
{"sequence": "GATATATA", "PBM E-score of 8-mer": "0.00683 ± 0.036"}
{"sequence": "CGCTATGC", "PBM E-score of 8-mer": "-0.0262 ± 0.022"}
{"sequence": "AGGCGCAG", "PBM E-score of 8-mer": "-0.0586 ± 0.053"}
{"sequence": "CGCCAACA", "PBM E-score of 8-mer": "0.259 ± 0.036"}
{"sequence": "CTTCTACA", "PBM E-score of 8-mer": "-0.126 ± 0.018"}
{"sequence": "GCAGGGAA", "PBM E-score of 8-mer": "-0.0487 ± 0.017"}
{"sequence": "CTTGTAAA", "PBM E-score of 8-mer": "0.073 ± 0.03"}
{"sequence": "AAAACCGT", "PBM E-score of 8-mer": "-0.00562 ± 0.047"}
{"sequence": "AATCGGAA", "PBM E-score of 8-mer": "0.201 ± 0.037"}
{"sequence": "AGCTTCCT", "PBM E-score of 8-mer": "-0.258 ± 0.025"}
{"sequence": "GGGGAGGA", "PBM E-score of 8-mer": "-0.183 ± 0.083"}
{"sequence": "ATGGTTGG", "PBM E-score of 8-mer": "0.0213 ± 0.029"}
{"sequence": "AGTAATGG", "PBM E-score of 8-mer": "-0.193 ± 0.014"}
{"sequence": "ATTTCGTG", "PBM E-score of 8-mer": "0.0509 ± 0.01"}
